Reference: paper PMC4336329 (PLoS ONE, 2015)
The campaign covered roughly 310,000 compounds. About 2,200 (0.71%) showed an effect of 50% or more. Effects have a minus sign here. This is one part of the list.

The compounds below were run against human ether-à-go-go-related gene (hERG) potassium channel (human, UniProt Q12809) (assay: primary screen, population patch clamp on CHO cells stably expressing hERG).
human ether-à-go-go-related gene (hERG) potassium channel, sequence (Q12809 whole entry, looked up): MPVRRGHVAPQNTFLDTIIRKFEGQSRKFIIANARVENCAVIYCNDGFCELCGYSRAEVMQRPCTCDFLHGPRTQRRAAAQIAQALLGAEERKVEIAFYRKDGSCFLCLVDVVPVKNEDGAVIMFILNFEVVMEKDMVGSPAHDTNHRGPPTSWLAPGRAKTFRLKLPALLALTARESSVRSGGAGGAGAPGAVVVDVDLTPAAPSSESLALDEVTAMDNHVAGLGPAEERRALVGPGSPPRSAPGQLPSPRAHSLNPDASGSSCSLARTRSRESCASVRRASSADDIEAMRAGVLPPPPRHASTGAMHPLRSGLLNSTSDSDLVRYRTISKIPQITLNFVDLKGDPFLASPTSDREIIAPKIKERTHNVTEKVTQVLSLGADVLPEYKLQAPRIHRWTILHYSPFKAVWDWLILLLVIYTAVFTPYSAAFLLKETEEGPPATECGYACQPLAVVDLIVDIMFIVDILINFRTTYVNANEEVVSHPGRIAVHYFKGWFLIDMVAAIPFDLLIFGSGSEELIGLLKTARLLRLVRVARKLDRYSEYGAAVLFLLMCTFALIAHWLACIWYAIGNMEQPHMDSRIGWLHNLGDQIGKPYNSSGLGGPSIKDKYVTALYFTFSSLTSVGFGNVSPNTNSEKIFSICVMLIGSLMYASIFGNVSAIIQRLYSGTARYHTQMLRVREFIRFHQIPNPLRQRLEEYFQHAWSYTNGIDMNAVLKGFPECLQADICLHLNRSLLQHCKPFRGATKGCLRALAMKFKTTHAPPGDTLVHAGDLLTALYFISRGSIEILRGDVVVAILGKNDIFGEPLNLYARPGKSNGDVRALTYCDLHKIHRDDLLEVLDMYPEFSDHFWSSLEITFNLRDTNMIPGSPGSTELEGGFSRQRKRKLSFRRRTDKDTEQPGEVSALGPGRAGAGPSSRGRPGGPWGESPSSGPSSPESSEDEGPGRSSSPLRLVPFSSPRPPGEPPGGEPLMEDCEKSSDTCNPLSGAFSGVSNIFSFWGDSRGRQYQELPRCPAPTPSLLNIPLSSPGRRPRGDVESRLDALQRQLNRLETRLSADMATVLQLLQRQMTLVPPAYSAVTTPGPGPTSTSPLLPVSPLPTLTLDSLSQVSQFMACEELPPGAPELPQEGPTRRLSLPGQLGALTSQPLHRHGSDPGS

Row | SMILES | hERG current change (%, negative = inhibition) at 1uM
1 | O=c1[nH]c(N2CCOCC2)nc2c1CCCC2 | 4.88%
2 | NC(=O)c1ccc(NS(=O)(=O)c2ccccc2F)cc1 | 2.75%
3 | C#CCOCCOCCOCCNc1nc(N2CCN(C(=O)[C@H](C)n3cc(CCC[NH+]=C(N)N)nn3)CC2)nc(N2CCN(C(=O)[C@H](C)n3cc(CCC[NH+]=C(N)N)nn3)CC2)n1.[Cl-] | 6.86%
4 | CCCn1c(SCC(=O)Nc2sc(C)c(C)c2C#N)nnc1C(C)C | 5.62%
5 | Cc1cc(O)c2c(c1)OC(C)(C)C1=C2CC(C)CC1 (stereo not shown) | 13.5%
6 | NC(=O)CSc1oc(-c2ccc(F)cc2)nc1S(=O)(=O)c1ccccc1 | 5.93%
7 | CCSc1nnc(NC(=O)c2c(-c3ccccc3Cl)noc2C)s1 | 10.7%
8 | Cc1cccc(NC(=O)CSCC(=O)N(CCC(C)C)c2c(N)n(Cc3ccccc3)c(=O)[nH]c2=O)c1 | 5.72%
9 | Fc1ccc(N2CCN(Cc3cc4c(cc3Br)OCO4)CC2)cc1 | 9.86%
10 | CCOC(=O)N1CCN(C(=O)C2CCC(=O)N(CCCc3ccccc3)C2)CC1 (stereo not shown) | 9.96%
11 | CCN(CC)CCNCc1ccc(OCc2ccc(Cl)nc2)c(OC)c1 | 3.39%
12 | CCC(=O)Nc1cc(SCCO)cc([N+](=O)[O-])c1 | 12%
13 | CC(C)N1CC(COc2ccc(Cl)cc2Cl)OC1=O (stereo not shown) | -13%
14 | CC(NS(=O)(=O)c1ccc2[nH]c(=O)c(=O)[nH]c2c1)C(=O)O (stereo not shown) | 3.87%
15 | COC(=O)c1ccccc1NC(=O)N1c2ccccc2CC1C (stereo not shown) | -0.865%
16 | CC1CN(C(=O)c2cc(-c3ccc(Cl)s3)nc3ccccc23)CC(C)O1 (stereo not shown) | 11.5%
17 | CCCOC(=O)c1ccc(Oc2cn[nH]c2-c2ccc(O)cc2O)cc1 | 7.56%
18 | COc1ccc(/C=C/C(=O)c2cc(Br)ccc(=O)c2O)cc1 | 17.6%
19 | CCN(CC)CCCN=Cc1c(O)n(Cc2ccc(F)cc2)c(=O)[nH]c1=O | -5.47%
20 | COc1cc2c(cc1OC)CN(C(=O)CCOc1ccccc1C)CC2 | 17.1%
21 | COC(=O)c1cc(OC)c(OC)cc1NC(=S)N1CCC(C(N)=O)CC1 | 9.37%
22 | CC1CCCCN1C(=O)c1ccc(C(=O)N2CCCCC2C)cc1 (stereo not shown) | 6.64%

Row | SMILES | hERG current change (%, negative = inhibition) at 1uM
23 | Cn1c(N)c(C(=O)COC(=O)c2cccnc2Cl)c(=O)n(C)c1=O | 5.34%
24 | COc1ccc(OCC(=O)NC(=S)Nc2ccc3c4c(cccc24)CC3)cc1 | 9.48%
25 | Cc1[nH]c(=S)[nH]c(=O)c1Cc1ccccc1 | 13.2%
26 | COc1cc([N+](=O)[O-])cc(/C=N/NC(=O)c2cc(C)nc3ccccc23)c1O | 10.9%
27 | Cc1ccccc1-c1nc(CN2CCC(C(=O)N3CCC(C(N)=O)CC3)CC2)c(C)o1 | 9.1%
28 | CCOc1ccc2c(=O)c(Oc3ccccc3)c(C)oc2c1 | 2.44%
29 | Cn1nc([N+](=O)[O-])nc1Sc1cccc2cccnc12 | 3.74%
30 | Cc1ccc(NC(=O)NCc2ccccn2)c(C)c1 | 14%
31 | Cc1noc(C)c1S(=O)(=O)Nc1ccc(C(=O)N2CCN(c3cccc(Cl)c3)CC2)cc1 | 3.09%
32 | C#CCOCCOCCOCCNc1nc(N2CCN(C(=O)[C@H](Cc3cc4ccccc4[nH]3)n3cc([C@@H](N)C(C)CC)nn3)CC2)nc(N2CCN(C(=O)[C@H](Cc3cc4ccccc4[nH]3)n3cc([C@@H](N)CC(C)C)nn3)CC2)n1.Cl (stereo partly shown) | 0.297%
33 | COc1ccc(C(=O)O)nc1C | 14.1%
34 | CN(Cc1ccon1)C(=O)C1CCN(C2CCN(CCCc3ccccc3)CC2)CC1 | -1.33%
35 | CCCCNCCCOc1cc(Cl)ccc1Cl.O=C(O)C(=O)O | -12.1%
36 | CCOc1ccc(S(=O)(=O)N2CCN(C(=O)CN3C(=O)NC(C)(C)C3=O)CC2)cc1 | 8.94%
37 | CC(C)c1ccc(-c2nc(N3CCCCCC3)nc3n[nH]c(N)c23)cc1 | 10.2%
38 | C/C(=N\NC(=O)C1CC1)c1ccc2c(c1)OCCO2 | 12%
39 | Cn1c(=O)c(-c2cccc(Cl)c2)c(O)c2ccccc21 | 8.79%
40 | CCOc1cc(/C=N\NC(=O)Cc2ccccc2)ccc1OCC(=O)Nc1ccc(C)c(C)c1 | 11.8%
41 | FC(F)(F)c1nc(-c2cccs2)ncc1-c1nnnn1-c1ccc(Cl)cc1 | 2.14%
42 | CCN(CC)c1c2c(c(C#N)c3nc4ccccc4n13)CCC2 | 9.16%
43 | S=C(NCCc1ccccc1)Nc1ccc(N2CCCCC2)cc1 | 11.1%
